Results published in PubChem BioAssay AID1159614 (National Center for Advancing Translational Sciences (NCATS), 2016).
Hit rate of the full screen: of about 45,000 compounds, about 65 (0.1%) were called active. The call rests on the fitted dose curve; in most records, active means well fitted activation curve with a large enough effect; inconclusive means small, poorly fitted or top-dose-only effect; inactive means no such curve, though single readings can be large or run the other way. Some of the results follow.

These compounds were tested against Galactocerebrosidase (Homo sapiens) (UniProt P54803) (assay: A Novel Cell-Based Assay to Identify Small Molecules for B -Galactocerebrosidase). Settings: 145M-Twi-hGALC-G270D cells (Twitcher mouse brain line with human GALC G270D), HMU-beta-Gal fluorescence, 48 h; series mostly up to 57.5 µM; activation: at the top concentration.
UniProt P54803, sequence (P54803 whole entry, looked up): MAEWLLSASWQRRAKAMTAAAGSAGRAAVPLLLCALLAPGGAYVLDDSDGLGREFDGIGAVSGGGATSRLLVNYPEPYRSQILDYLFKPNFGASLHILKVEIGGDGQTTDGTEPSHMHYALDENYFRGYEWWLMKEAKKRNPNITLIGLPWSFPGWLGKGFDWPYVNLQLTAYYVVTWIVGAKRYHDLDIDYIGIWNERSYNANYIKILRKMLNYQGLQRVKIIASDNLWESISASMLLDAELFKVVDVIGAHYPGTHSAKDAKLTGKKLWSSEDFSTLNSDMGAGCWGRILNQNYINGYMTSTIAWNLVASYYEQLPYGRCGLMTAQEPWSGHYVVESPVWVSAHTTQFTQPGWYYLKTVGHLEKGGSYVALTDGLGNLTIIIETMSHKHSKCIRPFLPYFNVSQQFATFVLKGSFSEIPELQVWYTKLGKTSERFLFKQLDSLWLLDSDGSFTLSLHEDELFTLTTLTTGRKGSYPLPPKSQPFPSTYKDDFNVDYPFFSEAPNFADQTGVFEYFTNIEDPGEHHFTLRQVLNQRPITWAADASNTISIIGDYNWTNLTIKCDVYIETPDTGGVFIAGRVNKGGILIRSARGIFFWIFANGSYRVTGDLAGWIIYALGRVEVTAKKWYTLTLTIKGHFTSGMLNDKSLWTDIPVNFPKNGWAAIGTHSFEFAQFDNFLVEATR
Outline: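 Live 145M-Twi cells (Twitcher mouse brain-derived, GALC-null) stably expressing human GALC-G270D, with a wild-type GALC line, were compound-treated. Residual GALC activity was then read as fluorescence from 0.1 mM final HMU-β-gal at pH 5.2; higher signal means activation.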
Further: 0% is about no effect; nearly all actives have a fitted effect of over 65% in size.

activation, inactive:
CCOC(=O)C1CCCN(C(=O)c2ccc(-n3ccc4ccccc43)s2)C1 (configuration not stated) -18.1%, COc1ccc(CNC(=O)c2cc(-c3ccc(OC)cc3)nc3n[nH]c(-c4cccc([N+](=O)[O-])c4)c23)cc1 -11%, Cc1ccc(CNC(=O)C2CCN(S(=O)(=O)c3ccc(F)cc3)CC2)cc1 5.2%, CC(=O)N1CCc2c(sc3c2c(=O)n(-c2ccc(C)cc2)c(=O)n3Cc2c(F)cccc2Cl)C1 1.43%, COC(=O)c1c(NC(=O)Cc2coc3cc(C)ccc23)sc2c1CCCC2 -12.7%, COc1ccccc1CNC(=O)c1cccn1-c1nnc(N2CCCCC2)s1 -4.38%, COc1ccc(CN2CCc3c(c(=O)n4ncc(C(=O)N5CCN(c6ccc(F)cc6)CC5)c4n3C)C2)cc1 -28.9%, COc1ccc(-c2cc(C)no2)cc1S(=O)(=O)NCc1cccs1 -16.9%, CCOc1ccc(C2CC(=O)Nc3cc4c(cc32)OCO4)cc1OC (configuration not stated) -36.5%, CCc1cccc(NC(=O)CN2Cc3ccccc3C2=O)c1 -18.3%, CCOC(=O)c1c(S(=O)(=O)N2CCCC(C(=O)Nc3ccccn3)C2)c(C)n(C)c1C (configuration not stated) -15.1%, COc1cc(CNC(=O)C2CCCCN2S(=O)(=O)c2ccc(F)cc2)cc(OC)c1OC (configuration not stated) -24.5%, Cc1nc(-c2cccc(NC(=O)Nc3ccccc3C(F)(F)F)c2)no1 -6.44%, Cc1c(Cl)cccc1NC(=O)Cn1cc(C(=O)c2cccs2)c2ccccc21 -24.5%, O=C(CSc1nc2ccsc2c(=O)n1Cc1ccccc1Cl)NCc1ccc(F)cc1 -4.25%, CCc1ccc(-n2c(=O)c3sc4ccccc4c3n(CC(=O)N3CCCC3)c2=O)cc1 -6.06%, COc1cccc(C(=O)c2cn(CC(=O)NCc3ccccc3Cl)c3nc(C)ccc3c2=O)c1 -0.962%, Cc1ccc(-c2nc(CS(=O)CC(=O)N3CCN(c4cccc(Cl)c4)CC3)c(C)o2)cc1 (configuration not stated) -15.2%, CCCOc1cccc(C2c3c(oc4ccccc4c3=O)C(=O)N2c2nncs2)c1 (configuration not stated) 6.23%, Cc1ccc(C)c(Cn2c(CCCNC(=O)C3CCCCC3)nc3ccccc32)c1 -11.7%, Cc1ccc2cccc(NC(=O)COc3ccccc3Cl)c2n1 3.92%, CCc1ccc(NC(=O)CCCc2nnc3n(CC(C)C)c(=O)c4sccc4n23)cc1 -3.05%, CC(C)CN(CC(C)C)S(=O)(=O)c1ccc(C(=O)Nc2sc3c(c2C(N)=O)CC(C)(C)NC3(C)C)cc1 -27.6%, O=C(Nc1c2c(nn1-c1ccc(Cl)cc1)CS(=O)(=O)C2)c1cccc(F)c1 -25.2%, CC(=O)Nc1ccc(S(=O)(=O)NCCc2cn3ccsc3n2)cc1 -19%, Cc1nnc(NC(=O)CSc2nccn2Cc2ccc(F)cc2)s1 -16.8%, CCOc1ccccc1NC(=O)c1c(NCc2cccs2)sc2c1CCC(C)C2 (configuration not stated) -14.9%, O=C(CSc1nc(-c2cccc(F)c2)[nH]c1-c1ccccc1)Nc1ccc2c(c1)OCCO2 -30.3%, CCC(=O)N1CCc2cc(OC)c(OC)cc2C1COc1ccccc1OC (configuration not stated) -19.4%, Cc1cccc(OCc2ccc(-c3nc(C#N)c(NCc4cccnc4)o3)o2)c1 -8.39%, COc1ccc(-c2nc(CNS(=O)(=O)c3ccc(Br)cc3)cs2)cc1 -17%, COC(=O)c1ccc(C2c3c(-c4ccccc4O)n[nH]c3C(=O)N2Cc2ccncc2)cc1 (configuration not stated) -14.1%, CC(C)c1nn2c(=O)cc(COC(=O)c3ccccc3NC(=O)COc3ccccc3)nc2s1 -17%, Cc1ccc(CN2COc3ccc4c(-c5ccccc5)cc(=O)oc4c3C2)cc1 -18.3%, Cc1c(C(=O)Nc2cccc(Cl)c2)oc2ccc(S(=O)(=O)N3CCCCCC3)cc12 -21.7%, Cc1cc(C)nc(-n2nc(C)c3c2N(C)C(=O)CC3c2ccc(Cl)cc2)n1 (configuration not stated) -10.1%, O=C(NCc1ccccc1)C(=O)Nc1ccc2nc3n(c(=O)c2c1)CCCCC3 -11.3%, COc1ccccc1NC(=O)CN1C(=O)C2(SCC(=O)N2c2ccc(F)c(F)c2)c2ccccc21 (configuration not stated) -25.6%, Cc1nnc(NC(=O)c2nc(SCc3ccccc3F)ncc2Cl)s1 -14.1%, CCc1cc(C(=O)NCc2ccccc2)no1 -15%, COc1cc(NC(=O)CSc2nc(-c3ccco3)cc(C(F)(F)F)n2)cc(OC)c1OC -16.5%, CCCOc1ccc(C(=O)Nc2ccc(NC(=O)c3ccccc3)c(Br)c2)cc1 -20.5%, CC(NC(=O)Cc1ccc(NC(=O)N2CCSc3ncccc32)cc1)c1ccccc1 (configuration not stated) -13.4%, Cc1cc(-c2ccc(S(=O)(=O)Nc3ccccc3F)s2)on1 11.9%, Cn1c(-n2cccc2)c(-c2c(-c3ccccc3)[nH]c3c2c(=O)[nH]c(=O)n3C)c(=O)[nH]c1=O -7.18%, Cc1ccc2c(c1)N(CC(=O)NCCc1ccc(Cl)cc1)C(=O)c1cccnc1O2 0.488%, O=C(Nc1cccc(-c2cn3cccnc3n2)c1)c1cc(Br)ccc1Cl -16.9%, O=C(CN1C(=O)COc2ccc(S(=O)(=O)NC3CCCC3)cc21)Nc1ccc(Cl)cc1 -5.58%, CCOC(=O)c1[nH]c(C)c(C(=O)NC(CC)Cc2ccccc2)c1C (configuration not stated) -5.3%, COc1ccc(C(=O)Nc2cc(C)c(O)c(-c3nc4ccccc4s3)c2)cc1OC -20.9%, CC(=O)Nc1ccc(NC(=O)CSc2nc3ccccc3nc2N2CCCCC2)cc1 -9.55%, CCN1CCN(c2ncnc3c2cnn3-c2ccc(C)c(C)c2)CC1 -14.3%, Cc1ccc(C)c(NC(=O)Cn2c(=O)n(CC3CCCO3)c(=O)c3ccccc32)c1 (configuration not stated) -16.6%, Cc1oc(=O)oc1CN1CCN(c2cc3c(cc2F)c(=O)c(C(=O)O)c2n3C(C)S2)CC1 (configuration not stated) -8.27%, CCOc1ccc(CNC(=O)c2ccc(CS(=O)Cc3ccc(Cl)cc3)o2)cc1 (configuration not stated) -8.65%, CCN(Cc1ccccc1)C(=O)CN1C(=O)COc2ccc(S(=O)(=O)NC3CCCC3)cc21 3.82%, Cc1ccc(-c2nnn3c2nc(NCC(C)c2ccccc2)c2ccccc23)cc1 (configuration not stated) -6.92%, COc1cccc(CNC(=O)c2ccc3c(c2)nc2n3CCOC2)c1 -6.35%, CCc1cccc(NC(c2ccccc2)c2nnc(-c3ccccc3F)o2)c1 (configuration not stated) -11.9%, CCc1ccccc1Nc1ncnc2c1cnn2-c1ccc(C)cc1C -6.3%, COc1ccc(C(=O)Nc2nnc(S(=O)(=O)N3CCN(c4ccc(F)cc4)CC3)s2)cc1 -13.6%, COc1ccc(C(=O)Nc2nnc(S(=O)(=O)N(C)c3ccc(C)cc3)s2)cc1 -6.6%, COc1cccc(CNC(=O)c2cc3c(=O)n(Cc4cccnc4)ccc3nc2C)c1 -16.5%, Cc1ccc(NC(=O)CSc2nc3c(sc4ccccc43)c(=O)n2CCCC(=O)NC2CCCC2)cc1C 2.49%, CC(C)COc1ccc(C(=O)Nc2nnc(S(=O)(=O)N(C)Cc3ccco3)s2)cc1 -18%, CCOC(=O)c1c(C)[nH]c(C)c1S(=O)(=O)N1CCCC(C(=O)NCc2ccccc2Cl)C1 (configuration not stated) 2.24%, COc1ccccc1CNC(=O)CN(c1ccccc1OC)S(C)(=O)=O 3.83%, CC(=O)Nc1ccc(OCC(O)CNC(C)C)cc1 (configuration not stated) -7.2%, Cc1ccc2c(c1)Cc1c(nc(-c3ccc(F)cc3)nc1SCC(=O)N1CCCCC1)O2 -21.2%, CCC(C)NC(=O)Cn1c(=O)n(-c2ccc(OC)c(OC)c2)c(=O)c2ccccc21 (configuration not stated) -13%, COc1ccc2cc(CCNS(=O)(=O)c3ccc(C)cc3)c(=O)[nH]c2c1 -8.57%, CCOC(=O)C1CCN(C(=O)c2c(C)nn(-c3ccc(F)cc3)c2-n2cccc2)CC1 -21.6%, Cc1ccc(Nc2c(-c3cccnc3)nc3ccc(Cl)cn23)cc1 -10.9%, Cc1ccc(Cl)cc1N1CCN(S(=O)(=O)c2ccc3c(c2)C(C(C)C)C(=O)N3)CC1 (configuration not stated) -28.3%, CC(C)c1ccc(NC(=O)C2CCCN2S(=O)(=O)c2ccc3nc(-c4ccccc4)[nH]c3c2)cc1 (configuration not stated) -7.57%, Cc1ccc(-n2ncc3c(N4CCN(Cc5ccccc5)CC4)ncnc32)cc1Cl -16.8%, CCc1cc(=O)[nH]c(SCc2nc(-c3cccc(Cl)c3)no2)n1 -7.68%, O=C(Nc1ccc(Cl)cc1)c1ccc(-n2cnnc2)cc1 -7.43%, O=C(COCc1cc(-c2cccs2)on1)NCc1ccc(F)cc1 -10.5%, Cc1cccc(OCC(=O)Nc2ccc3c(c2)nc(CN2CCCCC2)n3C)c1 -4.54%, O=S(=O)(c1ccc(-c2csc(=Nc3ccc(F)cc3)n2CCCCCCO)cc1)N1CCCC1 -13.2%, CCCc1nnc(NC(=O)Cc2coc3c(C)c(C)ccc23)s1 12.6%, COc1cc(NC(=O)Cn2ccc3ccccc3c2=O)cc(OC)c1OC -11.1%, COc1ccc(C(=O)N(Cc2sccc2C)C2CCS(=O)(=O)C2)cc1 (configuration not stated) -9.39%, CCOCCCn1c(SCC(=O)Nc2ccc(CC)cc2)nc2ccccc2c1=O -12.9%, Cc1nc(C)c(-c2ccc(SCC(=O)Nc3cccc(C)c3C)nn2)s1 -13.8%, Cn1c(C(=O)NCCc2ccccc2)cc2sc(Cl)cc21 -16.2%, Cc1ccc(CNC(=O)CSc2nc3ccsc3c(=O)n2-c2ccc(Br)cc2)cc1 -3.83%, CCOc1ccc(CNC(=O)CN2N=C(c3ccccc3)CCC2=O)cc1OC -8.43%, CCc1ccc(C2C(C(=O)Nc3ccccc3OC)=C(C)Nc3nc(SCc4ccccc4)nn32)cc1 (configuration not stated) -5.4%, Cc1ccc(-n2ncc(C(=O)NCCN3CCN(C)CC3)c2C2CCN(C(=O)OC(C)(C)C)CC2)cc1 -3.74%, COc1cccc(-c2oc3ccc(C)cc3c(=O)c2O)c1 -7.97%, CCOc1ccc(Nc2nc(C)c(NC(=O)c3cccc(F)c3)c(Nc3ccc(OCC)cc3)n2)cc1 -22.9%, Cc1noc(C)c1S(=O)(=O)N(CC(=O)NCCc1ccc(Cl)cc1)c1ccc(C(C)C)cc1 -18%, CCC1Oc2ccc(C)cc2N(CC(=O)N2CCN(c3ccccc3OC)CC2)C1=O (configuration not stated) 3.82%, Cc1ccccc1C(=O)NNc1ncnc2c1cnn2-c1cccc(Cl)c1 -16.6%, CCc1ccc(NC(=O)C2CCN(S(=O)(=O)c3cccc(-c4noc(C)n4)c3)CC2)cc1 -10.2%
